Test results published in the supplement of paper PMC10126150.
Sequences with one replicate were seen in a single cluster, so their values are uncertain.

System: ATP
Assay: switch fluorescence ratio, 500 uM ATP over buffer (Cy3 cluster intensity, sum of 5 cycles each) (fold (ratio)); higher = stronger signal-on switching upon ATP binding; sequences stand for … in TCGTCGGCAGCGTCAGATGTGTATAAGAGACAGTTTTTTTTTTTTTTTTTTTTTTTTT…TC
Conditions: aptamer strand: ATP DNA aptamer (quencher-CACCTGGGGGAGTATTGCGGAGGAAGG + anchor), 100 nM annealed; ATP concentration: 500 uM; one replicate
Outline: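 Exposure to 500 uM ATP lasted 15 min at 22 °C before imaging, and a selection-buffer image was taken beforehand, for Cy3-labelled switching-strand clusters on a modified Illumina MiSeq flow-cell annealed to 100 nM quencher-labelled ATP aptamer. Five buffer/ATP cycles were run with NaOH stripping and re-annealing between them. The fluorescence ratio per cluster is summed target-cycle over summed buffer-cycle Cy3 intensity, averaged per switch-domain sequence. Clusters outside 100-1000 RFU were excluded.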

Row | Sequence | switch fluorescence ratio
1 | AGTTATGGCT | 0.922
2 | CCGACTACTG | 1.01
3 | ACAATCCCAC | 1.04
4 | ATAGCCGAGA | 0.976
5 | ACATCTAT | 1.04
6 | GATATGTGAT | 1.02
7 | TGAGCAAAGA | 1.04
8 | TCCAAACATC | 0.951
9 | GCATGGTGAT | 0.989
10 | AGTGAATGGG | 0.964
11 | GCTGTTCAGC | 1.1
12 | ATCGCGTGCT | 0.962
13 | ACACCGGGA | 1.16
14 | GTGTATCCGG | 1.01
15 | AGTGTCCAT | 1.03
16 | AAGCAAAGGA | 0.965
17 | GGGTGTCGGC | 0.976
18 | TTTGGGAGTC | 0.971
19 | AATATCATGA | 1.03
20 | CATGCGGCCA | 1
21 | AAGTAGGTTT | 0.952
22 | CGTTGACGCC | 1.01
23 | CTAGTCCTTA | 0.981
24 | AATAATACTC | 1.39
25 | GGAACCGAGC | 1.67

Row | Sequence | switch fluorescence ratio
26 | AACGTGAGT | 0.939
27 | TCACCAGCTC | 1.04
28 | AGTATTTGCG | 0.964
29 | TAAGTAGGTT | 0.986
30 | TAAAGTGTCC | 1.04
31 | CGGAGAGAAG | 0.981
32 | CTTCGTATGT | 1.05
33 | ACCCAGGTTT | 1.59
34 | ACATACTCTT | 1.27
35 | CGTATGCGAC | 1.05
36 | GACGTTAATG | 0.978
37 | GACGCTAGAG | 1.11
38 | TCTACGCCAG | 1.07
39 | GTTTAACCG | 0.983
40 | GAGTTACACA | 1.01
41 | CCACCCCAAG | 1.42
42 | TAAAAACTTG | 1.03
43 | CTGGAGACTT | 1.04
44 | GGAATAGACC | 0.984
45 | TTAAACCCAA | 0.973
46 | AATGTAGCAG | 1.03
47 | AGTTATCAGC | 0.976
48 | TCGCTCCCGA | 1.12
49 | GCAGGCCCGT | 1.03
50 | TTCCCGGGCT | 1.02

Row | Sequence | switch fluorescence ratio
51 | TAAAAGCGGC | 1.07
52 | GCATCCGATT | 1.08
53 | ATTAATTCAT | 0.979
54 | ACTTATCAGC | 1.06
55 | ACGCACTGTG | 1.24
56 | TAATCCCCTC | 1.06
57 | CATGCTATAG | 1.06
58 | GGACGAGGGC | 0.971
59 | CATGGGAAGC | 0.942
60 | TTATTCTCGT | 0.978
61 | CAGGAAAGTC | 1.1
62 | CATTTTTATG | 1.02
63 | AATCGCGCTA | 1.01
64 | TCAGGGGAAA | 1.02
65 | TCAACAAGGG | 1.28
66 | TGCCGGTGGG | 1.01
67 | CTAGAGGCGG | 0.976
68 | CTGTTTGTGT | 1
69 | ACCGGGGCAT | 1.07
70 | ATTTTACCC | 1.01
71 | TTTTACCTT | 1.14
72 | TCGTTGAGAG | 1.04
73 | CGTGAAAATA | 1.01
74 | TTCATCAATT | 1.02
75 | GAGGAATCGG | 1

Row | Sequence | switch fluorescence ratio
76 | TAACGCTGTA | 1.01
77 | GTAGTTAGAC | 1.22
78 | AGGTTCGAGC | 1.07
79 | GGTCCCCATA | 1.01
80 | AAAACGATTG | 1.06
81 | CGGGGTATCG | 0.981
82 | CTCTAAAATA | 3.67
83 | CTAGAGGGAG | 1.01
84 | ACCCCTTTGT | 1.07
85 | ACCGTTACGC | 1.41
86 | GGGACATTGG | 0.98
87 | ACGTCTAGAA | 1.02
88 | AGGGCCCACG | 1.04
89 | CCCCTCGACT | 1.04
90 | TTACTGGTT | 1.01
91 | GCGGCGTGTG | 1.04
92 | TCCGTTGTCG | 1.03
93 | AAATGTTGTG | 0.978
94 | GACTACGGGC | 1.15
95 | TAGATGGTGC | 1.03
96 | CGTAGGACTA | 0.999
97 | ACAAGCGACG | 1.05
98 | TGGTCTAGTT | 1.01
99 | AAGTCCTTTT | 1.05
100 | GGCTCTTGTT | 1.02

Row | Sequence | switch fluorescence ratio
101 | GAGACGCTAG | 0.988
102 | TGGCACAAAT | 0.994
103 | AGAGGGGAGC | 1.01
104 | CGGAGGGCGG | 1.07
105 | AGGCCGATAG | 1.01
106 | TCAGTTCTGA | 1.01
107 | GTTCTCTGAG | 1.01
108 | GATGAGTGGG | 0.969
109 | TCGCTCTTTT | 1.03
110 | ACCTTGTTAT | 0.963
111 | GACTTACGCC | 1.36
112 | AACTAGAAGA | 0.962
113 | TCATCGCCCC | 2.26
114 | CATCTCCGTT | 1.21
115 | GACCAGGGA | 1.09
116 | CAGGGCCGGA | 0.965
117 | TTGGTTCAGG | 0.978
118 | TCTTAGGAGT | 0.997
119 | CGCGATGCCC | 2.07
120 | CGGCAATATG | 4.45
121 | TGACGATCTT | 0.982
122 | AAGGTGGTAG | 1.02
123 | CACTGGATG | 0.988
124 | TTAGCGCAAC | 1.34
125 | GGGACGCTGG | 0.998

Row | Sequence | switch fluorescence ratio
126 | TGATTAATTG | 0.996
127 | CCATGGCTTA | 1.03
128 | GGTAGACAG | 0.986
129 | CGACGCACTT | 4.61
130 | AAATTATGAT | 1.05
131 | TTACTGGCAA | 1.28
132 | TGGTGCGCTG | 0.956
133 | TTAGTCGT | 0.997
134 | GCGCTGAGGC | 0.913
135 | GCATAAACAA | 0.985
136 | TGTTGCGGTC | 1.06
137 | AATTGCTTAC | 1.18
138 | ACAATAATGG | 1.04
139 | CGTGCAAGAG | 3.14
140 | TCCAAATTCA | 1.06
141 | ACCTTGGTGC | 1.16
142 | TGACGGGAAC | 1.21
143 | GTATTACTTG | 0.985
144 | GAAAGGAAAT | 1.01
145 | CCGGCCATAA | 2.11
146 | AGTCTTGGCT | 1.02
147 | CTTAGTGGAC | 1
148 | CTTTAACTGT | 0.998
149 | AAAGATAGTC | 0.941
150 | CCGGTATAAA | 1.06

Row | Sequence | switch fluorescence ratio
151 | TGGGTGTGCC | 0.98
152 | CGTTCGTCTG | 1.03
153 | GGAAAGGTGC | 1.38
154 | TTCGCGAATT | 0.978
155 | CGGGCCACAA | 1.13
156 | CCTCTAGGGA | 1.05
157 | GGTTGCAGGT | 1.02
158 | GGGATGTTGA | 1.05
159 | GAGGATTTAT | 0.97
160 | ATCCTCTCTT | 1.02
161 | GGGGGCGAGG | 0.983
162 | GACGCCCCCA | 2.05
163 | GCTGATATAG | 0.993
164 | GACTTGCTTG | 0.982
165 | TTCCAGAAGC | 1.06
166 | TTCTCGGATT | 1.06
167 | TTAAGGAAGT | 0.929
168 | TCACCATTAT | 1.01
169 | ACTTTAGGTA | 1.03
170 | GGAGATTACA | 1.04
171 | TTTAACTGGG | 1.07
172 | AGTCCATATC | 0.983
173 | CGTTTGTCCC | 1.02
174 | TATCTGAATC | 0.991
175 | TTGTTGCAT | 1.03

Row | Sequence | switch fluorescence ratio
176 | TGAATGGCTC | 1.01
177 | CGGGGCCCGG | 1.12
178 | TATCTGGATA | 1.04
179 | AGGTGCGGAT | 1.02
180 | CGAAGTAAGA | 1.38
181 | CGGTCTTAGA | 0.969
182 | TGAGGCACTA | 1.12
183 | GTTGAAGCAT | 1
184 | GAAGCAGTCA | 1.03
185 | ACCAATCCAG | 1.01
186 | CATTGTGAGT | 0.941
187 | ACAGGATGCT | 0.991
188 | CGTCATTCTT | 1.03
189 | GTGGGGGAAC | 1.02
190 | CATTGCCACT | 0.958
191 | GATAAAACAG | 1.03
192 | AGGGTACCAC | 0.996
193 | TTAACTGTAC | 1.58
194 | CGCCCCGGGT | 1.64
195 | CAGGGGGAGA | 0.999
196 | ACACTAATGA | 1.04
197 | ATACGGTATA | 1.05
198 | ATTGTAGTCG | 0.929
199 | TTAGAGGTGA | 0.99
200 | TGACAGAGAT | 1.03
